Measured values reported in the antibiotic and cytotoxicity screens of Wong et al. (2023).
The list shows a part of the results.

tested on: S. aureus RN4220; assay: growth inhibition call (relative growth <= 0.2); conditions: 50 µM

Growth inhibition call, inactive:
C[C@@H]1CCCCO[C@H](CN(C)C(=O)CCC(F)(F)F)[C@@H](C)CN([C@@H](C)CO)C(=O)c2cc(NC(=O)Cc3ccccc3)ccc2O1
COc1ccc(NC(=O)N(C)C[C@H]2OCCCC[C@H](C)Oc3ccc(NS(=O)(=O)c4ccc(Cl)cc4)cc3C(=O)N([C@@H](C)CO)C[C@@H]2C)cc1
CCOC(=O)CN(C#N)c1nc(C)cc(C)n1
COc1ccc(NC(=O)Nc2ccc3c(c2)C(=O)N([C@@H](C)CO)C[C@@H](C)[C@@H](CN(C)Cc2ccc(C(F)(F)F)cc2)OCCCC[C@@H](C)O3)cc1
NCc1cccc2nsnc12
C[C@@H]1CN([C@H](C)CO)C(=O)c2cccc(NC(=O)Nc3ccc4c(c3)OCO4)c2O[C@@H]1CN(C)Cc1ccc(C(=O)Nc2ccccc2N)cc1
Cc1c[nH]c2ccccc12
O=C(C[C@H]1CC[C@@H]2[C@H](COC[C@@H](O)CN2S(=O)(=O)c2ccccc2)O1)NCCN1CCCCC1
COCC(=O)Nc1ccc2c(c1)C(=O)N(C)[C@H]1CC[C@@H](CC(=O)N3CCc4ccccc4C3)O[C@@H]1CO2
CN1C(=O)c2cc(NC(=O)c3cccs3)ccc2OC[C@H]2O[C@@H](CC(=O)NCCN3CCCCC3)CC[C@@H]21
C[C@@H]1CN([C@H](C)CO)C(=O)c2cc(NC(=O)CCC(F)(F)F)ccc2O[C@@H](C)CCCCO[C@H]1CN(C)Cc1ccc(C(=O)O)cc1
Cc1ccc(S(=O)(=O)N(C)C[C@@H]2Oc3ccc(NS(=O)(=O)c4ccccc4)cc3CC(=O)N([C@H](C)CO)C[C@H]2C)cc1
